# From ChEMBL document CHEMBL4888484, “Replenishing the malaria drug discovery pipeline: Screening and hit evaluation of the MMV Hit Generation Library 1 (HGL1) against asexual blood stage Plasmodium falciparum ,using a nano luciferase reporter read-out” (2022)
# The campaign covered roughly 150,000 compounds. About 540 (0.36%) showed an effect of 50% or more. This is one part of the list.
# System: Plasmodium falciparum
# Assay: Primary screen in NF54 nanoGlo assay, in single point, at 2uM, 72h; a lower Z score goes with more inhibition
# Assay type: functional, Erythrocyte
# Conditions: timepoint 72 hour
SMILES,% Inhibition [%],Z score
CC(C)(C)OC(=O)[C@H](NCC(O)C(F)(F)F)c1ccccc1 (stereo not given in full),3,-0.67
Cc1cccc(NC(=O)Nc2c(-c3ccncc3)[nH]c3c(Cl)cccc23)c1,-1,0.23
C/C=C/[C@@H]1OC(c2ccccc2)(c2ccccc2)c2ccccc2N1C(C)=O,4,-0.63
Cc1n[nH]c(C2CC2)c1C(=O)NCC1(CN2CCOCC2)CC1,-8,1.62
CCN(C[C@H]1CCCO1)C(=O)c1cc(Cn2c(C)nc3ccccc32)[nH]n1,-11,1.98
COc1ccc(C)cc1S(=O)(=O)N1C[C@H]2CC[C@@H](C1)N(C)C2,-13,1.28
Cc1cc(C)c(-n2cccn2)c(CN2CCN(CC(=O)O)CC2)c1,-22,2
CCc1ccc(Cn2cnc(-c3ccccc3)c2-c2nccn2CC)nc1,-9,1.51
C[C@H](NS(=O)(=O)c1ccco1)c1cnn(CC2CCC2)c1,-5,0.85
CCN(Cc1cn2cc(C)ccc2n1)Cc1nc(C)no1,1,-0.23
Cc1occc1C(=O)N(Cc1ccccc1)[C@H]1CCS(=O)(=O)C1,-4,0.39
O=C(C[C@H]1CCS(=O)(=O)C1)N1CCN(c2cccc(C(F)(F)F)c2)CC1,2,-0.17
CC(C1CC1)N(C)S(=O)(=O)NCC1CCN(C2CC2)C1 (stereo not given),3,-0.43
C[C@H](O)C(=O)N1CCC(CNC(=O)c2cncs2)CC1,-7,1.34
COc1cc(Cc2noc([C@@H](C)c3cn(C)c4ccccc34)n2)ccc1S(C)(=O)=O,3,-0.58
Cc1cc(-c2nnn(CC(O)CN3CC(C)OC(C)C3)n2)ccc1F (stereo not given),-5,0.99
CN1c2ccc(F)cc2N(CCNC(=O)c2cncc(F)c2)S1(=O)=O,6,-0.77
CCn1c([C@H]2CCCN(C(=O)c3cccc(C)n3)C2)nn(CCN(C)C)c1=O,-6,0.81
O=S(=O)(NC[C@H](OCCO)c1ccsc1)c1ccc(Cl)s1,-8,0.91
CC[C@H](CO)NC(=O)Cc1c(Cl)cccc1Cl,-10,0.87
Cc1nccn1Cc1nc(C(C)C)no1,-21,1.82
COc1ccc(CN2CCN(C)CC2)cc1NCc1cccnc1,-18,1.68

SMILES,% Inhibition [%],Z score
O=C(NC(c1ccccc1)C(F)F)N1CC2COCC(C1)O2 (stereo not given),-12,0.99
Cc1nn(C)c(N2CCC2)c1NC(=O)CC1CC2CCC1C2 (stereo not given),-14,1.81
OC1(c2cccc(C(F)(F)F)c2)CCN(c2cnccn2)CC1,8,-1.11
O=C(Nc1ccccc1)N(Cc1ccc(Br)o1)c1ccccn1,-1,0.2
Cn1ccc(C2NC(=O)N(C(c3ccc(F)cc3)C3CC3)C2=O)n1 (stereo not given),5,-0.72
COc1ccc2c(c1)C(C(=O)N[C@@H](C#N)C(C)C)CC2 (stereo not given in full),7,-1.31
CNS(=O)(=O)CCNS(=O)(=O)c1cc(-c2cc(C(F)(F)F)on2)oc1C,-10,1.02
Cc1cccc(NC(=O)Cc2nc(C)c(-c3ccccc3)s2)c1,-2,0.4
O=C(NCc1ccc(Br)cc1)C1CCN(c2nc3nc[nH]c(=O)c3s2)CC1,-14,2.16
CNC(=NCCc1cccc(OC)n1)NCc1ccco1,-15,1.62
COc1ccc(N2CCOCC2)c(NC(=O)c2ccc(-c3cccc(Cl)c3)o2)c1,0,0.03
O=C(Nc1ccon1)c1ccc(Oc2nccs2)cc1,-19,3.52
O=C(Nc1nc(C(=O)NCCN2CCOCC2)cs1)c1cc(F)cc(F)c1,3,-0.39
Cc1nsc(NC(=O)[C@]2(C)CCCO2)c1C#N,24,-2.78
COc1ccc(-n2nc(C)c3sc(N4CCCN(C(=O)c5ccc6c(c5)OCO6)CC4)nc32)cc1,-5,0.6
Cc1ccc(NS(=O)(=O)c2cc(-c3nnc(C(=O)N4CCCCC4)o3)sc2C)c(Cl)c1,-7,0.98
CN(CCO)CC1c2ccccc2C(CN(C)CCO)c2ccccc21 (stereo not given),1,-0.14
CC1(C)CCC(CC(=O)NCCOC(N)=O)CC1,-11,1.28
Cc1nn2c(nc1=O)-c1ccccc1N[C@@H]2c1ccc(C(=O)O)cc1,9,-1.54
COc1ccc(S(=O)(=O)N2CCOCC2)cc1N(C)S(C)(=O)=O,5,-0.68
COC[C@@H]1C[C@H](OC)CN1S(=O)(=O)c1cnn(C)c1,-5,0.71
CC1(NC(=O)CC2CC3CCC2C3)CCS(=O)(=O)C1 (stereo not given),-2,0.38

SMILES,% Inhibition [%],Z score
Cc1cccc(Cl)c1S(=O)(=O)N1CC(S(C)(=O)=O)C1,-7,1.06
NC1CCOC(C2CCCCN2S(=O)(=O)c2ccc(C(F)(F)F)s2)C1 (stereo not given),4,-0.63
CC(C)(C)OC(=O)N1CCC[C@@H]1CNC(=O)Nc1ccccn1,-13,1.66
Cc1nc(C(=O)OCCOC(C)C)cs1,-11,1.33
C=CCCC(=O)NC[C@](C)(O)c1cc2ccccc2o1,-13,2.64
CCN(C)c1ccccc1CNC(=O)N1CCC2(CC1)OCC(=O)N2C,-10,1.72
CCS(=O)(=O)C[C@H](C)NC(=O)c1cc(C)nc(NC)n1,4,-0.71
OCCN1CCN(c2nc(-c3c[nH]c4ccccc34)nc3c2CNC3)CC1,-8,0.97
O=S(=O)(c1cccc(Cl)c1)N1CCc2nc(N3CCc4ccccc4C3)nc(N3CCOCC3)c2C1,1,-0.11
CCc1ccccc1NC(=O)CN1CCN(C(=O)C2CC3C=CC2C3)CC1 (stereo not given),-10,1.4
CN(C)C(=O)NCc1cc2n(n1)CCCN(Cc1nc3ccccc3n1C)C2,-3,0.33
CC(C)c1cc(CN2CCC3(CC2)CN(CCOc2ccccc2)C(=O)O3)on1,-3,0.7
Cc1cc(NC(=O)CCc2nc(-c3ccc4cc[nH]c4c3)no2)nn1C,6,-0.99
c1cc(CN2CCCCC2)cc(-c2noc([C@@H]3C[C@H]3c3cccnc3)n2)c1,-15,2.09
CN1CCO[C@H](c2nc(-c3sc4ccccc4c3Cl)no2)C1,-13,1.15
N#Cc1cc(CNC2CCCC2C#N)ccc1F (stereo not given),-42,4.87
Cc1oc(-c2ccccc2)nc1Cn1cc(Br)c(C(C)C)n1,4,-0.38
Nc1c[nH]cc(Br)c1=S,-5,1.03
COc1ccc(C(=O)c2c(N)nc3n2CCCC3)cc1OC,-5,0.53
O=C(c1cc[nH]n1)N1CCCC1CC(O)c1ccccc1 (stereo not given),-4,0.63
Cc1nc(-c2ccc(N3CCN(C(=O)c4ccno4)CC3)nc2)no1,-1,0.1
Cc1c(-c2ccc(Cl)cc2Cl)nc2ccccc2c1C(=O)Nc1c(C)n(C)n(-c2ccccc2)c1=O,0,-0.03

SMILES,% Inhibition [%],Z score
Clc1cccc(-c2nc(N3CCN(c4ccccn4)CC3)nc3c2COc2ccccc2-3)c1,-9,1.32
CCCc1cnc(N(C)C[C@H]2CCCO2)nc1,-4,0.4
CCN(CC(=O)O)C(=O)[C@@H](C)Cc1ccccc1,4,-0.5
C[C@@](CO)(Cn1cnc2ccccc21)NC(=O)Cc1ccco1,6,-0.8
C[C@@H](Cc1ccc2c(c1)CCO2)NC(=O)c1cn(C)nn1,1,-0.09
Cn1cccc1C(=O)C(=O)N1C[C@@H]2CC[C@H]1CN(C(=O)c1cnccn1)C2,-13,1.68
O=C(NCCCc1nnc2ccccn12)Nc1cccc(N2CCCC2=O)c1,8,-1.06
N#Cc1cc(O)c(-c2c(O)n[nH]c2-c2ccccc2)cc1C#N,33,-0.41
Cc1c(C(=O)NC[C@H]2CCCN(Cc3ccco3)C2)n(C)c2ccc(F)cc12,-14,1.8
CNc1snc(C)c1C(=O)Nc1ccc2c(c1)OCCCO2,-2,0.32
Cc1ccc2ncccc2c1CNS(=O)(=O)N(C)C(C)C,-24,2.31
O=C(c1cnc(C2CC2)[nH]c1=O)N1CC(Oc2ccccc2F)C1,-3,0.35
Cc1noc(OCC(=O)c2c[nH]c3ccccc23)n1,-3,0.44
C=CCNC(=O)C(=O)Nc1c(F)c(F)c(F)c(F)c1F,-11,1.37
CCCc1nnc(-c2cccnc2N2CCN(C(=O)c3ccccc3)CC2)o1,-5,0.52
Cc1ccc(-n2cnnc2CNC(=O)c2ccnc(OCC3CCOCC3)c2)cc1,-6,1.06
CCc1nnc2n1C[C@@H](CNc1nnc(C)c(C)c1C#N)CC2,-8,1.61
CN(C)C[C@H]1CN(Cc2cc(-c3ccccc3)no2)CCO1,-10,1.05
CC1CCCCC1(NC(=O)OC(C)(C)C)C(=O)NCCN1CCOCC1 (stereo not given),-7,1.06
